From PubChem BioAssay AID720708 (National Center for Advancing Translational Sciences (NCATS), 2013)
Out of some 360,000 compounds screened, about 660 (0.18%) were called active. This list was built around the results that the source calls inconclusive (neither active nor inactive); the mix of calls is not that of the screen. The call rests on the fitted dose curve; in most records, active means well fitted inhibition curve with a large enough effect; inconclusive means small, poorly fitted or top-dose-only effect; inactive means no such curve, though single readings can be large or run the other way. No potency is given beside an inconclusive call; the fits are too rough.

Target: Rap guanine nucleotide exchange factor 4 (Homo sapiens) (UniProt Q8WZA2)
Experiment: qHTS for Antagonist of cAMP-regulated guanine nucleotide exchange factor 2 (EPAC2): primary screen; further: nearly all actives have a fitted effect of over 45% in size
Conditions: EPAC2 GEF exchange of Rap1B-BODIPY-GDP, fluorescence; activity, negative = inhibition: at 114 µM (top of the series) unless noted
On the % scale 0 is the no-effect control and ±100 the full control effect; potency means the concentration at half of the fitted maximal effect; tags describe the fitted curve by direction and shape.

Sequence of UniProt Q8WZA2 (Q8WZA2 whole entry, looked up): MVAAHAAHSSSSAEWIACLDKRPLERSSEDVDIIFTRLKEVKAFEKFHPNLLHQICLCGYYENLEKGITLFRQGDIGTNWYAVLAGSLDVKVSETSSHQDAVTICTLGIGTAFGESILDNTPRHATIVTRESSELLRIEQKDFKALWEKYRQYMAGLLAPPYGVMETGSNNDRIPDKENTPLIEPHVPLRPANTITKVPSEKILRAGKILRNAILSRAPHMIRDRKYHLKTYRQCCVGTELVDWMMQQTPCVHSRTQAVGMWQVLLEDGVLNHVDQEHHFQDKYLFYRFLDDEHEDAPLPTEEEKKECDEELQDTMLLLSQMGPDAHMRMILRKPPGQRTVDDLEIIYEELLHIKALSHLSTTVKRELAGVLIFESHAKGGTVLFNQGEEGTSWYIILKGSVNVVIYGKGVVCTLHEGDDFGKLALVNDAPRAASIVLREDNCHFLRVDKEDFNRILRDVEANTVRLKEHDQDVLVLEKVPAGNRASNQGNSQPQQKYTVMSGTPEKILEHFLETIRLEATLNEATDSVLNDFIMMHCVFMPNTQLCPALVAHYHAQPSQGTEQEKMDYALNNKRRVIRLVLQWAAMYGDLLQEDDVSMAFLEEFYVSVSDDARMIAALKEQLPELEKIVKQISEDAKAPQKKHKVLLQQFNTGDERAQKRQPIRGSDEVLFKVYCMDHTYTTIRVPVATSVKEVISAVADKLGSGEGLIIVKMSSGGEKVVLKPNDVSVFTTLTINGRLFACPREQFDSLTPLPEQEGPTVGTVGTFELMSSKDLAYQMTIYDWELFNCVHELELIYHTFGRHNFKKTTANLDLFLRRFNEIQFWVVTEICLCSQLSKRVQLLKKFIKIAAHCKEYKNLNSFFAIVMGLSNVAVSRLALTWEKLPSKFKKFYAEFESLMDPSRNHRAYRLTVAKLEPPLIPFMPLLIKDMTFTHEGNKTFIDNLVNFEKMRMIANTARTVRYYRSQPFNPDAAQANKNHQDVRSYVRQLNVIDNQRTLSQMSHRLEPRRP

Row | SMILES | activity, negative = inhibition | Potency
1 | Cc1ccc(NC(=S)NC(=O)c2cccs2)cc1F | inactive: -17.7% | –
2 | Cc1ccc(C(=O)NCCSC(C)(C)C)cc1[N+](=O)[O-] | inactive: 7.04% | –
3 | Cc1cc([N+](=O)[O-])ccc1P(=O)(O)c1ccc([N+](=O)[O-])cc1C | inactive: 5.14% | –
4 | COc1cc(SC)ccc1C(=O)Nc1ccc(C)cc1 | inactive: -6.05% | –
5 | O=C(N/N=C/c1cccnc1)c1cc(-c2ccccc2OCc2ccccc2)n[nH]1 | inactive: -2.53% | –
6 | Cc1nc2c(C(=O)NCCc3ccccc3)c[nH]n2c(=O)c1Cl | – | inconclusive [inhibitor, partial curve]
7 | CC(C)NC(=O)CC1Nc2c3ccccc3nc(=S)n2C1=O (configuration not stated) | inactive: -0.0866% | –
8 | O=C(c1ccccc1)c1cc(Cl)ccc1N1C(=O)C=CC1=O | inactive: -6.55% | –
9 | CCN(CC)c1nc(SCC(=O)O)nc(N(CC)CC)n1 | – | inconclusive [inhibitor, partial curve]
10 | CCC(CO)Oc1cc(NCc2ccc(C(C)(C)C)cc2)c2ncn(C(C)C)c2c1 (configuration not stated) | – | inconclusive [inhibitor, full curve]
11 | O=C(NN=Cc1c(O)ccc2ccccc12)C1CC1 | – | inconclusive [inhibitor, single point]
12 | O=C(CC(CC(=O)c1ccccc1)c1ccccn1)c1ccccc1 | – | inconclusive [inhibitor, full curve, poor fit]
13 | Cc1ccc(C#N)c(SCc2ccccc2F)n1 | – | inconclusive [inhibitor, partial curve]
14 | COc1ccc(-n2nnnc2C(c2ccnc3ccccc23)N2CCN(C/C=C/c3ccccc3)CC2)cc1 (configuration not stated) | – | inconclusive [inhibitor, partial curve, poor fit]
15 | Cc1cc(C)cc(-n2c(SCC(=O)Nc3cccc(S(=O)(=O)NC4=NCCCCC4)c3)nc3ccccc3c2=O)c1 | inactive: 9.11% | –
16 | CCC(C)c1ccc(S(=O)(=O)N2CCN(S(=O)(=O)c3ccc(NC(C)=O)cc3)CC2)cc1 (configuration not stated) | inactive: 26.9% | –
17 | C/C(CC(=O)Nc1ccc(N(C)C)cc1)=N\NC(=O)c1ccc([N+](=O)[O-])cc1Cl | inactive: -0.877% | –
18 | COCC(=O)OC1CCn2c1nc1c2C(=O)C(C)=C(NC(C)=O)C1=O (configuration not stated) | – | inconclusive [inhibitor, partial curve]
19 | CCCCN(CC)CCNC(=O)c1cn(-c2ccc(Cl)cc2)c(=O)c2ccccc12 | inactive: 4.16% | –
20 | CC(C)c1cccc(-c2csc(C(C)(O)c3ccc(F)c(F)c3)n2)c1 (configuration not stated) | – | inconclusive [inhibitor, partial curve, poor fit]
21 | CCCCC[C@@H](C)N1C[C@H](COCc2ccccc2)Oc2cc(N3CC[C@@H](O)C3)ccc2S1(=O)=O | – | inconclusive [inhibitor, full curve]
22 | O=C1c2ccccc2C(Nc2ccc(Cl)cn2)N1c1ccccn1 (configuration not stated) | – | inconclusive [inhibitor, partial curve]
23 | Cc1cc(Cn2nnc3ccccc32)c(O)c(C(C)(C)C)c1 | – | inconclusive [inhibitor, partial curve]
24 | CCc1nnc(NC(=O)C2CC(=O)N(C3CCCCC3)C2)s1 (configuration not stated) | inactive: 11% | –

Row | SMILES | activity, negative = inhibition | Potency
25 | CC(C)OCCCn1c(=O)c2ccccc2n2c(CCC(=O)O)nnc12 | inactive: 4.65% | –
26 | Cc1ccc(C)c(NC(=S)NNC(=S)Nc2ccc(C(C)C)cc2)c1 | – | inconclusive [inhibitor, partial curve]
27 | C/C=C/C1=CC(=O)C[C@H](c2ccc(Cl)cc2)C1 | – | inconclusive [inhibitor, partial curve]
28 | Cc1c(CCC(=O)N[C@@H](C)C(=O)O)c(=O)oc2cc3oc4c(c3cc12)CCCC4 | – | inconclusive [inhibitor, partial curve]
29 | O=S(=O)(Nc1ccc2c(c1)OCCO2)c1ccc(F)c(F)c1 | inactive: -17.4% | –
30 | COc1ccc(N2C(=O)CS/C2=N\C(=S)Nc2ccccc2)cc1 | inactive: 1.22% | –
31 | O=C(CCC1CCN(C(=O)c2cncs2)CC1)Nc1ccccc1 | inactive: -4.97% | –
32 | COc1cc2c(cc1OC)CN(c1ccc(C(F)(F)F)cn1)CC2 | inactive: -20.5% | –
33 | COc1ccc(OC)c(C(=O)c2ccc(Cl)cc2)c1 | – | inconclusive [inhibitor, partial curve]
34 | CC(C)(C)C(C(=O)n1cccc1C#N)c1ccccc1 (configuration not stated) | – | inconclusive [inhibitor, partial curve]
35 | Cc1nc(N)sc1N=Nc1ccccc1C(F)(F)F | – | inconclusive [inhibitor, partial curve]
36 | CCOc1ccccc1C(=O)NCC(=O)NCCCc1ccccc1 | inactive: 5.69% | –
37 | COc1cc(/C=C/c2cc(C(=O)O)c3ccccc3n2)ccc1OC(F)F | – | inconclusive [inhibitor, partial curve]
38 | O=S1(=O)CCN(Cc2csc(-c3cccs3)n2)CC1 | inactive: 11.6% | –
39 | COc1ccc(N2CCN(c3nc(NCCc4ccc(OC)c(OC)c4)nc(OC)n3)CC2)cc1 | inactive: -3.3% | –
40 | CCCOc1ccc(Cl)cc1CNc1ccccc1 | – | inconclusive [inhibitor, partial curve]
41 | CCCCCC(=O)Nc1ccc(C2C(=O)c3ccccc3C2=O)cc1 | – | inconclusive [inhibitor, partial curve]
42 | CCc1ccc(NS(=O)(=O)c2cc3c(cc2C)n(C)c(=O)c(=O)n3C)cc1 | inconclusive: -30.7% [inhibitor] | –
43 | C[C@H](CO)N1C[C@H](C)[C@@H](CN(C)CC2CCCCC2)Oc2c(NC(=O)Cc3ccccc3)cccc2C1=O | – | inconclusive [inhibitor, partial curve]
44 | NC(=O)c1cccc(-c2coc3c(C(=O)NCc4ccccc4)cccc23)c1 | inactive: 8.69% | –
45 | O=C(O)c1cc(O)c2c(c1)[C@@H]([C@H]1c3cc(C(=O)O)cc(O)c3C(=O)c3c(O[C@@H]4O[C@H](CO)[C@@H](O)[C@H](O)[C@H]4O)cccc31)c1cccc(O[C@@H]3O[C@H](CO)[C@@H](O)[C@H](O)[C@H]3O)c1C2=O | – | inconclusive [inhibitor, partial curve]
46 | Cc1ccc2nc(NC(=O)CSc3nc(=O)n(CCCN(C)C)c4c3CCC4)sc2c1 | – | active: 79.4 µM
47 | COc1cc(/C=C2/C(=O)NN(c3cccc(Cl)c3)C2=O)cc(Br)c1O | – | inconclusive [inhibitor, partial curve]
48 | COc1cc(NS(=O)(=O)c2cc3[nH]c(=O)c(=O)[nH]c3cc2C)cc(OC)c1OC | inactive: 3.29% | –

Row | SMILES | activity, negative = inhibition | Potency
49 | Cc1cc(/C=C2\SC(=S)NC2=O)cc(C)c1O | – | active: 15.8 µM
50 | Cc1ccc(F)c([C@H]2[C@@H]3C=CCC[C@@]3(C)C(=O)N2Cc2ccccc2)c1 | – | inconclusive [inhibitor, partial curve]
51 | O=C1CCCCCN1Sc1ccccc1 | inactive: -0.923% | –
52 | CSc1ccccc1NC(=O)COc1ccccc1C | – | inconclusive [inhibitor, partial curve]
53 | Cc1ccccc1NC1=C/C(=N\S(=O)(=O)c2ccc(C(=O)O)cc2)c2ccccc2C1=O | – | active: 50.1 µM
54 | CC1CCCN(C(=O)c2cccc(S(=O)(=O)Nc3cc(C(F)(F)F)ccc3Cl)c2)C1 (configuration not stated) | – | inconclusive [inhibitor, single point]
55 | O=C(Nc1ccccc1-c1ccccc1)c1ccccc1 | inactive: -25.9% | –
56 | C[C@@H]1CN([C@H](C)CO)C(=O)c2cc(NC(=O)Nc3ccc(C(F)(F)F)cc3)ccc2O[C@H]1CN(C)S(=O)(=O)c1ccccc1 | – | inconclusive [inhibitor, full curve, poor fit]
57 | O=C1c2cccc(NCCCNCCO)c2C(=O)c2cccc(NCCCNCCO)c21 | inactive: -19.8% | –
58 | O=C(CSc1nnc(SCc2cccc3ccccc23)s1)Nc1ccc(C(=O)O)cc1 | – | inconclusive [inhibitor, partial curve]
59 | Cc1ccccc1OCc1n(CC(=O)OC2CC(C)CCC2C(C)C)c2ccccc2[n+]1C (configuration not stated) | – | inactive
60 | COc1ccc(C(=O)c2ccc(Cl)cc2)c2ccccc12 | – | inconclusive [inhibitor, partial curve]
61 | Cc1ccc(-c2nc3c(c(=O)[nH]c(=O)n3Cc3ccccc3)n2Cc2ccccc2)o1 | inactive: 3.58% | –
62 | Cc1ccc(NC(=O)Cc2nc(COC(=O)c3c(F)cccc3Cl)cs2)cc1 | – | inconclusive [inhibitor, full curve, poor fit]
63 | COc1ccccc1-c1ccc2c(c1)C(C)(Cc1ccc(OC(F)(F)F)cc1)C(=O)N2 (configuration not stated) | – | inconclusive [inhibitor, full curve]
64 | Cc1ccc(S(=O)(=O)N2C[C@H]3C(=O)C[C@@H](c4ccccc4)N(S(=O)(=O)c4ccc(C)cc4)[C@H]3C[C@H]2c2ccc(Cl)cc2)cc1 | inactive: -1.7% | –
65 | COc1ccc(NC(=O)Nc2ccc3c(c2)CCC3)cc1 | inactive: 15.9% | –
66 | CCc1nc(C)cc2c1sc1ccccc12 | – | inconclusive [inhibitor, partial curve]
67 | Cc1ccc(S(=O)(=O)NC(=O)c2ccc(-c3ccc(C)c4ccccc34)o2)cc1 | – | inconclusive [inhibitor, partial curve]
68 | CC12CCCC(CC(=O)O)(C1)NC(=O)C2 (configuration not stated) | inactive: -9.62% | –
69 | CCCCC(O)(c1ccc(OC)cc1)C(CN1CCOCC1)c1ccccc1 (configuration not stated) | – | inconclusive [inhibitor, partial curve]
70 | Cc1ccc(S(=O)(=O)c2c(C)nn(C(C)(C)C)c2OC(=O)CC(C)C)cc1 | – | inconclusive [inhibitor, partial curve]
71 | Cc1c(CCC(=O)O)c(=O)oc2cc(OCc3ccc(Br)cc3)ccc12 | – | inconclusive [inhibitor, partial curve]
72 | CCCCCCCCCCCCCCCC(=O)OC(CC(=O)O)C[N+](C)(C)C (configuration not stated) | – | inconclusive [inhibitor, full curve, poor fit]
